# Experimental data reported in PubChem BioAssay (NCATS).
# The shares of active, inactive and inconclusive entries below differ from those in the screen. Potencies beside an inconclusive call are fits to weak or partial responses and may not hold up. Active and inactive are the calls of the source. Calls come from the whole dose curve; as a rule, active = well fitted cell-killing curve with a large enough effect; inconclusive = small, poorly fitted or top-dose-only effect, or effect the other way; inactive = flat fitted curve, though single readings scatter.
# How the values were obtained:
# Assay in all cases: Primary qHTS to identify gynecologic anti-cancer compounds using libraries of approved drugs and bioactive compounds (AID 1345084); note: nearly all actives have a fitted effect of over 55% in size
# C33A = details: Gynecologic cancer cell panel viability, ATPlite luminescence, 48 h; series mostly up to 57.5 µM
# Summary of the method: (§1)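 Cells, 1,000 per well, plated 16 h, then exposed 48 h at 37 C to compounds. Viability by ATPlite luminescence after 15 min at room temperature.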
# CAOV3 = details: Gynecologic cancer cell panel viability, ATPlite luminescence, 48 h; series mostly up to 57.5 µM
# Summary of the method: as §1
# CASKI = details: Gynecologic cancer cell panel viability, ATPlite luminescence, 48 h; series mostly up to 57.5 µM
# Summary of the method: as §1
# Es-2 = details: Gynecologic cancer cell panel viability, ATPlite luminescence, 48 h; series mostly up to 57.5 µM
# Summary of the method: as §1
# Hek293T = details: Gynecologic cancer cell panel viability, ATPlite luminescence, 48 h, control line for the selectivity index; series mostly up to 57.5 µM
# Summary of the method: as §1
# JEG-3 = details: Gynecologic cancer cell panel viability, ATPlite luminescence, 48 h; series mostly up to 57.5 µM
# Summary of the method: as §1
# OV90 = details: Gynecologic cancer cell panel viability, ATPlite luminescence, 48 h; series mostly up to 57.5 µM
# Summary of the method: as §1
# Potency is the fitted concentration of half-maximal effect; tags give direction and shape of the fitted curve.
Structure (SMILES),Potency (C33A),Potency (CAOV3),Potency (CASKI),Potency (Es-2),Potency (Hek293T),Potency (JEG-3),Potency (OV90)
C/C=C(/C)C(=O)O[C@H]1C(C)=C2[C@H]([C@@H]1OC(=O)CCCCCCC)[C@@](C)(OC(C)=O)C[C@H](OC(=O)CCC)[C@@]1(O)[C@H]2OC(=O)[C@@]1(C)O,active: 20 µM,"inconclusive: 0.282 µM [cytotoxic, full curve, poor fit]","inconclusive: 10 µM [cytotoxic, partial curve, poor fit]",active: 0.316 µM,"inconclusive: 1.41 µM [cytotoxic, full curve, poor fit]",active: 0.447 µM,"inconclusive: 0.0562 µM [cytotoxic, partial curve, poor fit]"
COc1cccc(NCC(F)Cn2c3ccc(Br)cc3c3cc(Br)ccc32)c1 (stereo not given),"inconclusive: 15.8 µM [cytotoxic, partial curve]","inconclusive: 28.2 µM [cytotoxic, partial curve, poor fit]",active: 7.94 µM,"inconclusive: 31.6 µM [cytotoxic, single point]","inconclusive: 35.5 µM [cytotoxic, single point]","inconclusive: 22.4 µM [cytotoxic, partial curve, poor fit]",
CN(C(=O)CN1C(=O)COc2cc(Cl)c(Cl)cc21)[C@@H](CN1CCCC1)c1ccc(-c2cccc(C(N)=O)c2)cc1,"inconclusive: 35.5 µM [cytotoxic, single point]","inconclusive: 22.4 µM [cytotoxic, partial curve, poor fit]","inconclusive: 31.6 µM [cytotoxic, single point]","inconclusive: 39.8 µM [cytotoxic, single point]","inconclusive: 28.2 µM [cytotoxic, single point]","inconclusive: 39.8 µM [cytotoxic, single point]","inconclusive: 28.2 µM [cytotoxic, single point]"
